Measurements taken from paper PMC12040169 (PLOS Biology, 2025).
The other results are listed elsewhere or left out.

tested on: T1, C. trachomatis L2/434/Bu expressing GFP (CTL2-GFP); design: species or system HeLa; C. trachomatis total inclusion area by high-content imaging, normalised to DMSO; settings: total inclusion area; 28.5 h, 10 µM; inhibitor
T1 construct: L2/434/Bu GFP intracellular growth in HeLa cells
Outline: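 Following bulk GFP and resorufin fluorescence reads, infected cells were fixed, Hoechst-stained and imaged on a high-content platform. Inclusion total area and number per well served as growth proxies; nuclei counts indicated host viability. MICs were derived as for the fluorescence assay.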

Compound | % of control remaining
CN1CCN(C)C(COc2cccc(C(F)(F)F)n2)C1 (stereo not drawn) [CBK113292] | 104.469
CCOC(=O)N1CCC(NS(=O)(=O)c2ccc(OC)c(OC)c2)CC1 [CBK045464] | 68.7296
C[C@H](Nc1cncc(-c2ccc3ccccc3c2)n1)c1ccccc1 [CBK065799] | 107.442
CN1Cc2ccccc2-c2ccc(O)cc21 [CBK017804] | 58.7526
O=C(C1CC2C=CC1C21CC1)N1CCC(Oc2cccc(F)c2)CC1 (stereo not drawn) [CBK281525] | 100.582
O=C1NCCNC(=O)C2(C/C=C/COc3ccccc31)CCN(C(=O)c1cncs1)CC2 [CBK292023] | 92.3497
O=[N+]([O-])c1ccc(CN2CCN(C/C=C/c3ccccc3)CC2)o1 [CBK026551] | 78.538
NC(=O)c1ccccc1-c1cnc(N)c(-c2ccc(O)cc2)n1 [CBK115536] | 82.2637
COc1cc(C)ccc1S(=O)(=O)Nc1cccc2cc[nH]c12 [CBK159511] | 108.206
OC(Cn1ccc2ccccc21)Cn1c(Cc2ccccc2)nc2ccccc21 (stereo not drawn) [CBK267954] | 117.804
COCCN1C(=O)C2(CC(=O)N(CC3CCCCC3)C2=O)c2cc(OC)ccc21 (stereo not drawn) [CBK075166] | 104.422
O=C(NC(=O)N1CCSC1)c1c(Cl)cccc1Cl [CBK028794] | 76.4668
Cc1cc(=O)oc2cc(NC(=S)NNC(=O)c3ccc4c(c3)c(C)c(C)n4Cc3ccccc3)ccc12 [CBK267138] | 131.838
O=C(O)CNS(=O)(=O)c1ccc(Cl)c(Cl)c1 [CBK266981] | 112.75
Clc1ccc(CN2CCC(Oc3nccnc3OC3CCCCC3)CC2)cc1 [CBK082856T] | 96.3409
CCCCOc1ccc(-c2nonc2NC(=O)COc2ccccc2Cl)cc1 [CBK299792] | 116.178
CCCn1c(N)c(C(=O)CSc2ncnc3sc4c(c23)CCCC4)c(=O)[nH]c1=O [CBK297556] | 103.701
S=c1[nH]nc(-c2ccco2)n1-c1ccc(Cl)cc1 [CBK023586] | 22.3589
CC1=NN(c2ccc([N+](=O)[O-])cc2)C(=O)/C1=C\NCCc1ccc(S(N)(=O)=O)cc1 [CBK263006] | 110.445
Cc1ccc(-c2nnc(COc3ccc(-c4cnc5ccccc5n4)cc3)o2)cc1 [CBK269721] | 61.596
COC(=O)c1ccc(CSc2nnc(-c3ccc(OC)cc3)n2C(C)C)o1 [CBK297523] | 83.0983
FC(F)(F)c1nc2ccccc2[nH]1 [CBK028224] | 37.1137
CCCC(=O)N(C)C(CO)c1cc(OC)ccc1Br (stereo not drawn) [CBK304694] | 51.8007
CCN(CC)C(=O)c1c(F)ccc(F)c1C(=O)O [CBK022303] | 87.3398
CCN(CC)CCn1c(OC)cc(=O)[nH]c1=O [CBK264411] | 119.454
CC(C)c1nn(C)c(N(C)C)c1CNCc1cscn1 [CBK304321C] | 92.9031

Compound | % of control remaining
Cc1ccc(S(=O)(=O)N(CCC#N)CCN2CCCC2)cc1 [CBK028055] | 89.129
O=C(NCC1COc2ccccc2O1)N1CCCCC1CO (stereo not drawn) [CBK156162] | 97.2771
CC(NC(=O)CN1CCCCCC1=O)c1cc2cc(Cl)ccc2o1 (stereo not drawn) [CBK281448] | 106.293
Cc1nc(C2CCN(C(=O)C3CCC3)CC2)nc2c1CCCN2CCc1ccccc1 [CBK285645] | 82.1218
O=C(Nc1ccc(F)cc1)N1Cc2nc[nH]c2C[C@H]1c1nc(-c2ccc(F)cc2)no1 [CBK288970] | 111.961
Oc1cccc2c1CC(NCC(F)(F)C(F)(F)F)CC2 (stereo not drawn) [CBK007596] | 100.965
CCN(CC)C(=O)c1cccc(NS(=O)(=O)c2cccc3cccnc23)c1 [CBK038999] | 73.2881
CCCc1nc(SC)ncc1C(=O)Nc1nnc(SCC)s1 [CBK291198] | 82.4505
C=CCOc1ccccc1OCCCN1CCN(C)CC1 [CBK269714C] | 120.013
O=C(Nc1ccc(F)cc1)c1sccc1NS(=O)(=O)Cc1ccccc1 [CBK004574] | 76.0139
O[C@@H]1CN(Cc2ccc(F)c(F)c2)CC[C@H]1NC1CC1 [CBK283319] | 93.9549
Cc1nc(O)cc(C2CCN(C(=O)c3csc4c3CCCC4)CC2)n1 [CBK307618] | 75.5058
CCCCN(C)c1c(C)nc2c(OCc3ccc(S(=O)(=O)N(C)C)cc3)cccn12 [CBK147189] | 97.8211
CCOc1nc(NCCC2=CCCCC2)nc(OCC)n1 [CBK027387] | 65.5615
CC(NS(=O)(=O)c1ccc(CCC(=O)N2CCN(C)CC2)cc1)c1ccccc1 (stereo not drawn) [CBK266868] | 125.746
O=C(NCc1ccncc1)c1csc2c(C(F)(F)F)cc(N3CCN(Cc4ccccc4)CC3)nc12 [CBK034294T] | 77.7284
COc1cccc(CNc2ccc(N3CCCCC3)cc2)c1OCc1cccs1 [CBK074531] | 33.6271
NC(=O)CN1CCCN(c2ccnc(OCC3COc4ccccc4O3)n2)CC1 (stereo not drawn) [CBK083236T] | 15.9487
Cc1cc2ccccc2n2c(=O)n(CC(=O)N3CCCCC3)nc12 [CBK283878] | 110.707
O=C(NC(c1cccnc1)c1ccc2c(c1)OCO2)C1CCN(CCc2cccs2)CC1 (stereo not drawn) [CBK148503] | 91.7573
Cc1nn(Cc2ccccc2)c(C)c1CNC(=O)c1nc(Cl)ccc1Cl [CBK297928] | 102.1
O=C(O)c1ccc2c(c1)C(=O)N(Cc1cccc(CN3C(=O)c4ccc(C(=O)O)cc4C3=O)c1)C2=O [CBK265556] | 94.6932
CCn1nc(C)c(-c2cncn2CCCN2CCCCC2)c1C [CBK281769] | 106.161
O=C(NCc1ccc(Cl)cc1)C1CCCN1c1nc(O)cc(C(F)(F)F)n1 (stereo not drawn) [CBK003706] | 88.9133
COc1ccc(CCN(C(C)=O)C2CC(=O)N(c3ccccc3)C2=O)cc1OC (stereo not drawn) [CBK262349] | 80.3114
